Measurements reported in ChEMBL document CHEMBL1201862, “PubChem BioAssay data set” (2004).
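Method: 48-hour compound exposure of cells in 96-well plates, five concentrations, linear interpolation of endpoints. At the GI50, growth is halved.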 Activity calls are given as the source filed them. No stated cut-off is given here; in the data, active = GI50 up to about 1.1 µM and inactive = higher.

Test system: NCI-H322M
Test: DTP human tumour cell line panel, 48 h

Row | Structure (SMILES) | GI50
1 | O=c1[nH]c(=O)n(C2CC(O)C(CO)O2)cc1/C=C/Br (centres undefined) | inactive: > 100 µM
2 | CC(C)CC1c2[nH]c3ccccc3c2C[C@H]2C(=O)NC(CCCCNC(=O)OC(C)(C)C)C(=O)N12 (some centres undefined) | inactive: 44 µM
3 | COC[C@@H](Cc1ccc(OC)c(OC)c1)[C@@H](COC)Cc1ccc(OC)c(OC)c1 | inactive: > 100 µM
4 | O=C1/C(=C/c2ccc(O)c(O)c2)CCC/C1=C\c1ccc(O)c(O)c1 | inactive: 9.95 µM
5 | CN(C)c1ccc(/C=C/C(=O)c2ccc(O)cc2)cc1 | inactive: 43.5 µM
6 | CCCCNN | inactive: > 100 µM
7 | O=C(O)c1ccc([N+](=O)[O-])c(P(=O)(O)O)c1 | inactive: > 100 µM
8 | c1ccc(-c2cn3c(nc4ccccc43)c(-c3ccccc3)n2)cc1 | inactive: > 76.2 µM
9 | CCN(CC(=O)O)CC(=O)O | inactive: > 100 µM
10 | O=C(O)CCC1(C(=O)O)CCC(=O)c2ccccc21 (centres undefined) | inactive: > 100 µM
11 | Cc1csc2nc(-c3ccc(Cl)c([N+](=O)[O-])c3)c(/C=N/NC(=N)N)n12 | inactive: 1.63 µM
12 | COc1ccc(-c2c(CN3CCOCC3)sc3nc4ccccc4n23)cc1 | inactive: 30.1 µM
13 | Cn1c(=O)c2[nH]cnc2n(CC(=O)O)c1=O | inactive: > 100 µM
14 | O=[N+]([O-])/C=C1\COCc2cc3c(cc21)OCO3 | inactive: 92 µM
15 | O=C(OCCNC(=O)N1CC1)OCCNC(=O)N1CC1 | inactive: > 10 µM
16 | O=C(CN1CCCCC1)c1ccc2c(c1)Sc1ccccc1O2 | inactive: 14.6 µM
17 | CC(=O)N(CCc1ccccc1)C(C#N)c1ccc(OCCCCCCCCCCOc2ccc(C(C#N)N(CCc3ccccc3)C(C)=O)cc2)cc1 (centres undefined) | inactive: 91.4 µM
18 | C[n+]1c2ccccc2c(CNC(CS)C(=O)O)c2ccccc21 (centres undefined) | inactive: 41.9 µM
19 | CC1=NC(=Cc2ccc([N+](=O)[O-])cc2)C(=O)N1n1c(-c2ccccc2)nc2ccccc2c1=O | inactive: 58.6 µM
20 | CCOC(=O)C1=C(OC(OCC)C(CC)[Se]c2ccccc2)CCCC1 (centres undefined) | inactive: > 100 µM
21 | CC1=C(C)C2(C#N)C(=O)N3C(=NC(c4ccco4)NC3c3ccco3)C2(C#N)C(c2ccco2)N1 (centres undefined) | inactive: > 100 µM
22 | Cn1c(N)nc2c(nc(OCc3ccccc3)n2C2OC(CO)C(O)C2O)c1=O (centres undefined) | inactive: > 100 µM
23 | C(=N\Nc1ccc(-c2nc3ccccc3[nH]2)cc1)/c1c(-c2ccc(Cc3ccccc3)cc2)[nH]c2ccccc12 | inactive: 8.73 µM

Row | Structure (SMILES) | GI50
24 | CC(C)(Oc1ccc(/C=C/C(=O)c2ccc(Cl)cc2)cc1)C(=O)Nc1c(Cl)cccc1Cl | inactive: 74.1 µM
25 | NS(=O)(=O)c1ccc(/N=N/c2c(O)c(C(=O)O)cc3ccccc23)cc1 | inactive: > 100 µM
26 | COc1cccc(N2C(=O)/C(=C\c3ccccc3)SC2c2cc(OC)c(OC)c(OC)c2)c1 (centres undefined) | inactive: 31 µM
27 | O=c1[nH]c2c3ccccc3ccc2c2cc3c(cc12)OCO3 | inactive: > 100 µM
28 | CCO[C@H]1C[C@@H](c2ccccc2)[C@]2(C)C[C@H](C(=O)OC)ON2O1 | inactive: > 100 µM
29 | Nc1ccn(C2OC(COP(=O)(O)OCC3OC(n4cc(F)c(=O)[nH]c4=O)CC3O)C(O)C2O)c(=O)n1 (centres undefined) | inactive: > 100 µM
30 | COc1cc(C2CC(C)(Nc3ccccc3)Oc3cc4c(cc32)OCO4)cc(OC)c1OC (centres undefined) | active: 0.582 µM
31 | O=c1[nH]c(=O)n(C2CC(O)C(CO)O2)cc1OCCCc1ccccc1 (centres undefined) | inactive: > 100 µM
32 | COC(=O)[C@H]1C=NN[C@@H]1C(=O)N1[C@H]2CC3CC[C@@]2(CS1(=O)=O)C3(C)C | inactive: > 100 µM
33 | COc1ccc(CNc2nc(NC3CCCCC3)nc(NC3CCCCC3)n2)cc1 | inactive: 8.79 µM
34 | C[C@]12CC(C#N)C(=O)C(O)=C1CC[C@@H]1C2CC[C@@]2(C)C1CC[C@@H]2O (some centres undefined) | inactive: 57.8 µM
35 | C=CCNC(=S)N1c2ccccc2NC(=O)CC1C (centres undefined) | inactive: > 100 µM
36 | Cc1nc(N)nc(N)c1CCCCc1ccc(N)cc1 | inactive: 7.85 µM
37 | C=C1CC(COc2ccc3ccc(=O)oc3c2)(c2ccccc2)OC1=O (centres undefined) | inactive: 12 µM
38 | CCCCCCCCCCCCCC(=O)NCO | inactive: > 100 µM
39 | N#CC(Cc1ccccc1Br)N(CCC1=CCCCC1)C(c1ccccc1)c1ccccc1 (centres undefined) | inactive: 84.3 µM
40 | C=C1C(=O)O[C@H]2[C@H]1[C@@H](OC(=O)C=C(C)C)CC1=C[C@@H](C[C@@]3(C)O[C@@H]23)OC1=O | inactive: 12.1 µM
41 | CCOC(=O)CCC(NC(=O)c1ccc(NCc2ccc3nc(-c4ccccc4)c(Cl)nc3c2)c2ccccc12)C(=O)OCC (centres undefined) | inactive: > 100 µM
42 | CCCCCCCCCCCCCC(=O)OC(/C=C/C(C)C)C(O)C(O)C(OC)C(=O)NC1CCCCN(C)C1=O (centres undefined) | inactive: 4.37 µM
43 | N#CC1=C(N)N2C(=O)/C(=C/c3ccccc3O)N=C2S1 | inactive: 98.4 µM
44 | O=C(N/N=C(\C1=Nc2ccc(Cl)cc2NC1O)C(O)/C=C/c1ccccc1)c1ccncc1 (centres undefined) | inactive: > 100 µM
45 | COC(=O)C1C(=O)C=CN([C@H](C)c2ccccc2)[C@@H]1Cc1ccc(OC)c(OCc2ccccc2)c1I (some centres undefined) | inactive: 24.9 µM
46 | Cc1ccc(NC(=O)CC(=O)n2nc(C)c(/N=N/c3cccc(C)c3)c2C)cc1 | inactive: > 100 µM

Row | Structure (SMILES) | GI50
47 | COC(=O)[C@]12CC3C=CC1N(C3)C(CBr)c1c2n(S(=O)(=O)c2ccccc2)c2ccccc12 (some centres undefined) | inactive: 73.6 µM
48 | C#CC(O)/C=C/C(O)CCCC(O)CC#CC(O)C#CCCCCC(O)/C=C/CCCCCC(=O)CCCCCCCCCCCCCC(O)C(O)C#CC(=O)O (centres undefined) | inactive: > 25 µM
49 | COc1ccc(OC/C(N)=N/NC(=O)c2ccncc2)cc1 | inactive: > 100 µM
50 | O=C(O)C1C2CCC(O2)C1C(=O)N1CCCCC1 (centres undefined) | inactive: 23.3 µM
51 | N#CC(C#N)=Cc1c(O)ccc2ccccc12 | inactive: 17.3 µM
52 | COc1ccc2c(c1OC)C(=O)O[C@@H]2[C@H]1c2cc3c(cc2CCN1C)OCO3 | inactive: > 100 µM
53 | Cc1c(CCCl)c(=O)n2c([nH]c3ccccc32)c1C#N | inactive: 1.78 µM
54 | CNc1ncc(-c2nnnn2-c2ccccc2)c(CN(C)C)n1 | inactive: > 100 µM
55 | C[C@H]1C=C2C(=O)O[C@H]3CC[C@@H](C1)[C@@]23O | inactive: 4.45 µM
56 | Cc1cc(C)c(/C=N/NS(=O)(=O)c2ccccc2)c(C)c1 | inactive: > 100 µM
57 | Oc1ccc2oc3c(O)c4ccccc4cc3c2c1 | inactive: 63.5 µM
58 | COc1ccc(-c2cc(-c3ccc(Nc4ccnc5cc(C(F)(F)F)ccc45)cc3)[nH]c(=O)c2C#N)cc1 | inactive: > 100 µM
59 | NCCc1ccc2oc3cc(=O)c4ccccc4c-3nc2c1 | inactive: 3.2 µM
60 | COc1cc(CCNC2=CC(=O)c3ncccc3C2=O)ccc1O | inactive: 3.41 µM
61 | N#Cc1c(/C=C/c2ccccc2)c2c([nH]c1=S)CCCCC2 | inactive: > 100 µM
62 | Cc1cccc(C)c1NC(=O)C1=NC(=S)NC(c2ccccc2)C1c1nc2ccccc2s1 (centres undefined) | inactive: > 100 µM
63 | CS(=O)(=O)OCC1=C(COS(C)(=O)=O)C(=O)c2c(O)ccc(O)c2C1=O | inactive: > 100 µM
64 | Cc1cc(C)nc(NS(=O)(=O)c2ccc(NC(=O)c3ccc(Cl)c4c(Nc5ccc(S(=O)(=O)Nc6nc(C)cc(C)n6)cc5)c5ccccc5nc34)cc2)n1 | inactive: 3.65 µM
65 | COC(=O)C1CC(C(=O)OC)c2nc3cc(C)ccc3nc21 (centres undefined) | inactive: > 100 µM
66 | CCOC(=O)C1C[C@H]2CO[C@H](c3ccccc3)N2C1=O (some centres undefined) | inactive: > 100 µM
67 | Cn1c2ccccc2c(=S)c2cc(NC(=O)CCCCC(=O)Nc3ccc4c(c3)c(=S)c3ccccc3n4C)ccc21 | inactive: > 100 µM
68 | O=c1c2ccccc2[nH]c(=S)n1-c1ccc(/N=N/c2cccc3c(O)cccc23)cc1 | inactive: > 100 µM
69 | COc1ccc(C2N(c3ccc(F)cc3)C(=O)N3C(c4ccc(OC)cc4)N(c4ccc(F)cc4)C(=O)N23)cc1 (centres undefined) | inactive: > 100 µM

Row | Structure (SMILES) | GI50
70 | COc1ccc(Oc2cccc(/C=C3/C(=O)Nc4ccccc43)c2)cc1 | inactive: 16.9 µM
71 | CC(/C=C/c1ccccc1)=N\NC(N)=S | inactive: 45.2 µM
72 | FC(F)(F)C(C1=NC(C(F)(F)F)(C(F)(F)F)N=C(N2CCOCC2)O1)C(F)(F)F | inactive: 40.7 µM
73 | c1ccc(NNC2=NCCN2)cc1 | inactive: > 100 µM
74 | COC(=O)NC12CC3CC(CC(F)(C3)C1)C2 | inactive: > 100 µM
75 | Cc1nnc(N2C(=O)C(=Cc3ccc(Cl)cc3)N=C2c2ccc(Cl)cc2)nc1/C=C\c1ccc(N(C)C)cc1 | inactive: > 100 µM
76 | CC(=O)O[C@@H]1[C@@H](O)C2=C3[C@]4(C)[C@@H]1C(C)(C)C(=O)C[C@@H]4[C@]3(O)[C@H](OC(C)=O)[C@@]1(C[C@@H]1C)C2=O | inactive: 17.9 µM
77 | Cc1ccc(S(=O)(=O)N2C[C@](O)(c3ccccc3)[C@H]2C)cc1 | inactive: > 100 µM
78 | CCCCCCCCCCCCCC/C(C(=O)OC)=C(/O)C(=O)OCC | inactive: > 100 µM
79 | Nc1ccc(/N=N\c2ccc(-c3ccc(O)cc3)cc2)c2ccc(S(=O)(=O)O)cc12 | inactive: > 100 µM
80 | C/C(=N\NC(N)=S)c1cccs1.OB(O)c1ccccc1 | inactive: > 100 µM
81 | CC[C@@H]1C[C@H]2CC3c4[nH]c5ccc(O)cc5c4CCN(C2)C31 | inactive: > 100 µM
82 | CC1CCC2CC(=O)OC([C@@H]3C(=O)O[C@@H](C4=CCCC4)C4C(C)CCC43)C12 (some centres undefined) | inactive: > 100 µM
83 | COC1=CC(=O)[C@H]2[C@H](C)C(c3ccccc3)[C@@]2(C)C1=O (some centres undefined) | inactive: > 100 µM
84 | Cc1ccc2[nH]c3c4c5ccccc5nc-4c[nH]c3c2c1 | inactive: 16.3 µM
85 | COc1cc2c(cc1C)NC(=O)/C2=C/c1c(Cl)[nH]c2ccccc12 | inactive: 13 µM
86 | COC1CC2C3/C(=N/Nc4ccc([N+](=O)[O-])cc4[N+](=O)[O-])CCC2(C)C3C1 (centres undefined) | inactive: > 100 µM
87 | CC1=C(C(=O)NNC(=O)C[N+](C)(C)C)CC(C(=O)NNC(=O)C[N+](C)(C)C)=C(C)N1 | inactive: > 100 µM
88 | Cc1c2cc[n+](Cc3ccc(I)cc3)cc2c(C)c2c1[nH]c1ccccc12 | active: 1.01 µM
89 | COc1ccc(-c2oc3ccc(C)cc3c(=O)c2O)cc1 | inactive: 59.6 µM
